Two molecules from US20230272055A1, “ANTI-MUTANT CALRETICULIN (CALR) ANTIBODIES AND USES THEREOF” (Incyte Corporation, priority 2021, published 2023) can be followed below.

In test [1] the target is T1, MPL dimerization in HAP1 cells transfected with MPL-LgBiT, MPL-smBiT, human JAK2 and mutant CALR Type 1 (Homo sapiens, UniProt P27797).
T1 construct: the full-length WT or mutant CALR Type 1 protein (full-length cds cloned into the pD2529 vector, ATUM Bio); expressed in transfected cells; host or cells: HAP1 cells knocked out for human JAK2 (Horizon Discovery, Ltd.), transient transfection
T1 sequence (P27797 with tags, fused parts or gaps): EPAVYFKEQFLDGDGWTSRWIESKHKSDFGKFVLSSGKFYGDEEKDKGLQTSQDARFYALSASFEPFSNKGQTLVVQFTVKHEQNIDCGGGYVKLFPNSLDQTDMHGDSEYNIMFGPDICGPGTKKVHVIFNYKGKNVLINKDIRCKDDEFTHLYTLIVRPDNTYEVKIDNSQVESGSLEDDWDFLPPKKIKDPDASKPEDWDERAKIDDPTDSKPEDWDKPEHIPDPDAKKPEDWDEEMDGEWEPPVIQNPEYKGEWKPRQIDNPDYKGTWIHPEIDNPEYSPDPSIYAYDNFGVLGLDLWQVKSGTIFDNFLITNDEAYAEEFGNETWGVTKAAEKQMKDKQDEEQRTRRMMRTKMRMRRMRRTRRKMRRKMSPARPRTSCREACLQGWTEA
Kind of test: Inhibition of MPL dimerization (MPL-LgBiT/MPL-smBiT luminescence). It counts as cell-based. Particulars: percent inhibition compared to isotype control; FIGS. 4A-4G. The method, then:
Inhibition of MPL dimerization was tested as a potential mechanism of action of the anti-mutCALR antibodies. HAP1 cells knocked out for human JAK2 (Horizon Discovery, Ltd.) were transiently transfected with vectors encoding the MPL-LgBiT and MPL-smBiT fusion proteins (Promega Corp.). Also included in the transfection were vectors encoding the full-length human JAK2 and the full-length WT or mutant CALR Type 1 protein (full-length cds cloned into the pD2529 vector, ATUM Bio). The cells were transfected in 96 well plates using Trans-IT 2020 reagent (Mirus Bio LLC) with equivalent amounts of each plasmid. Cells were then incubated at 37° C., 5% CO2. 6 hours post-transfection, antibodies were diluted into growth medium (IMDM, 10% FBS) and added to the cells at the indicated concentrations. The plates were incubated overnight and the growth medium was replaced with 100 μl OPTI-MEM I, no phenol red, containing the same concentrations of antibodies. After 1 hour at 37° C., 5% CO2, 25 μl NanoGlo Live Cell Reagent (Promega) was added to each well. Plates were returned to the incubator for 30 minutes before luminescence was read on a PHERAstar FSX (BMG Labtech). Data was analyzed using GraphPad PRISM Software (version 7.04) and expressed as percent inhibition compared to isotype control.
The amino acid sequences for the MPL-LgBiT and MPL-smBiT fusion proteins used in this Example are: […]

Test [2] concerns CD34+ cells from human cord blood (WT cells) or an MPN patient with mutCALR. As to the kind of experiment: Megakaryopoiesis with clone 74 and ruxolitinib co-treatment. It counts as cell-based. Particulars: six days, FIG. 19D; for frequency/production of megakaryocytes: single agent (25 nM ruxolitinib or 25 μg/mL clone 74). The source says: In another experiment, Clone 74 and ruxolitinib were combined to determine the impact of co-treatment on megakaryopoiesis produced by CD34^+ cells from human cord blood (WT cells) or an MPN patient with mutCALR (mutCALR cells).

In test [3] the test system is pSTAT3 and pSTAT5 in CD34+ cells harboring mutCALR. As to the kind of experiment: Western blot of pSTAT3 and pSTAT5 in CD34+ cells. Particulars: 12 hours, dose-dependent, FIG. 19C. It counts as cell-based, human. The method, then:
In another experiment, the CD34^+ cells described above were added at 50,000 cells/well to a 12-well plate containing 2.0 mL culture media with specified concentrations of clone 74 or isotype control. The treatment period was 12 hours. After 12 hours, cells were collected, washed and lysed using lysing buffer (Cell Signaling Technologies) supplemented with 1× Halt™ Protease and Phosphatase Inhibitor Cocktail (Thermo Fisher Scientific). Protein samples (6 μg) were separated in pre-casted 4-12% TrisGglycine gels (Thermo Fisher Scientific) and transferred to nitrocellulose membranes using iBlot 2 Dry Blotting System and iBlot™ 2 Transfer Stacks (Thermo Fisher Scientific). The nitrocellulose membranes were blocked with StartingBlock (Thermo Fisher Scientific) for one hour and probed with antibodies to detect pSTAT5 (Cell Signaling), STAT5 (Cell Signaling), pSTAT3 (Cell Signaling), STAT3 (Cell Signaling), and β-actin (Cell Signaling). Detection was performed using horseradish peroxidase (HRP)-conjugated secondary rabbit antibody (Cell Signaling) and chemiluminescence HRP substrate (Thermo Scientific).

Test [4] relates to Ba/F3-TPOR/mutCALR type 1 engineered cells. Kind of test: Cell proliferation with antibody and/or ruxolitinib, mutCALR Type 1. Particulars: log value, 72 hours. It counts as cell-based. The method, then:
To test the ability of anti-mutCALR antibodies to potentiate the therapeutic response of the JAK1/2 inhibitor ruxolitinib, Ba/F3 cells were engineered to express MPL+mutCALR Type 1 (52 bp deletion) or MPL+mutCALR Type 2 (5 bp insertion) as described above. Cells were plated at 5,000 cells per well in RPMI 1640+2% FBS, treated with 50 nM of ruxolitinib and/or anti-mutCALR antibodies. Cells were incubated for 72 hours followed by assessment of cell viability using the CellTiter-Glo Luminescent Cell Viability Assay (Promega, Madison, Wis.) and Top Count (Perkin Elmer, Boston, Mass.) or Pherastar (BMG Labtech, Ortenberg, Germany) for luminescence quantification. Ruxolitinib used at a concentration of 50 nM inhibited the level of oncogenic cell proliferation by approximately 20% (dotted line).

Test [5] has as its system WT BaF3 cells or Ba/F3-TPOR/mutCALR type 1. As to the kind of experiment: Cell cycle profile (BrdU/7-AAD flow cytometry). The class given is cell-based. Particulars: 24 hours, FIG. 20. The method, then: Engineered BaF3 cells (10,000 cells/well) were added to a 12-well plate containing 2.0 mL culture media with serially diluted antibodies. The treatment period was for 24 hours. After 22 hours of incubation, Ba/F3 cells were pulse-labeled with BrdU for 2 hours. After 24 hours, Ba/F3 cells were collected, washed with PBS and incubated with BD Cytofix/Cytoperm buffer for 20 minutes on ice. Cells were then washed with the BD Perm/Wash buffer and the cell pellets were resuspended in 100 μL of BD Cytoperm and Permeabilization buffer and incubated on ice for 10 minutes. Cells were then washed and resuspended in 100 μl of BD Cytofix/Cytoperm buffer and incubated at room temperature for 5 minutes. Cells were washed and treated with 100 μL of 300 μg/mL solution of DNase, and incubated for 1 hour at room temperature, and were then washed and resuspended in 50 μl of BD Perm/Wash buffer containing anti-BrdU-APC antibody for 20 minutes in the dark at room temperature. After additional washing, cells were resuspended in PBS containing 2% FBS and 7-AAD and analyzed for cell cycle profiles on the LSRFortessa™ X-20 analyzer (BD Biosciences). Clone 74 was screened to determine its effect on the cell cycle using WT BaF3 cells or Ba/F3-TPOR/mutCALR type 1.
On the technique in general: A flow cytometer gives signals particle by particle.

B1: 65 (antibody)
heavy: EVQLVQSGAEVKKPGASVKVSCKVSGYTLTELSMQWVRQAPGKGLEWMGGFDPDDGETMYAEKFQGRLTVTEDTSTDTVYMELRSLTSEDTALYFCATSPGYDFFDYWGQGTLVTVSSASTKGPSVFPLAPSSKSTSGGTAALGCLVKDYFPEPVTVSWNSGALTSGVHTFPAVLQSSGLYSLSSVVTVPSSSLGTQTYICNVNHKPSNTKVDKRV[omitted - human IgG1 Fc with changes]
light: SYVLTQPPSVSVAPGKTARITCTGTSSDVGGYNYVSWYQQKPGQAPVLVVYEVSNRPSGIPERFSGSNSGNTATLTISRVEAGDEADYYCQVWDSSNDLLIFGGGTKLTVLGQPKAAPSVTLFPPSSEELQANKATLVCLISDFYPGAVTVAWKADSSPVKAGVETTTPSKQSNNKYAASSYLSLTPEQWKSHRSYSCQVTHEGSTVEKTVAPTECS
In the case of B1, the “inhibition of MPL dimerization” value in test [1] was “inhibit MPL dimerization”.

B2: 74 (antibody)
heavy: EVQLVQSGAEVKKPGASVKVSCKVSGYTLTELSMQWVRQAPGKGLEWMGGFDPDDAETMYAEKFQGRLTVTEDTSTDTVYMELSSLRSEDTAVYFCATSPGYDFFDYWGQGTLVTVSSASTKGPSVFPLAPSSKSTSGGTAALGCLVKDYFPEPVTVSWNSGALTSGVHTFPAVLQSSGLYSLSSVVTVPSSSLGTQTYICNVNHKPSNTKVDKRV[omitted - human IgG1 Fc with changes]
light: SYVLTQPPSVSVAPGKTARITCTGTSSDVGGYNYVSWYQQKPGQAPVLVVYEVSNRPSGIPERFSGSNSGNTATLTISRVEAGDEADYYCQVWDSSNDLLIFGGGTKLTVLGQPKAAPSVTLFPPSSEELQANKATLVCLISDFYPGAVTVAWKADSSPVKAGVETTTPSKQSNNKYAASSYLSLTPEQWKSHRSYSCQVTHEGSTVEKTVAPTECS
Turning to B2, the frequency/production of megakaryocytes entry in test [2] (WT CD34+ cells (human cord blood)) was “but not from WT CD34^+ cells”. In addition, in test [2] (combination of 25 nM ruxolitinib and 25 μg/mL of clone 74), the “pathogenic megakaryocytes produced by mutCALR+ CD34+ cells” value is recorded as “further depletion”. Moreover, in test [2] (mutCALR+ CD34+ cells), the frequency/production of megakaryocytes result was “selectively reduced”. Also, the “inhibition of MPL dimerization” value in test [1] is recorded as “inhibit MPL dimerization”. Also, in test [3], the “pSTAT3 inhibition (Western blot)” value is recorded as “selectively inhibited” and the “pSTAT5 inhibition (Western blot)” value was “selectively inhibited”. For the same molecule, the “Log IC50, Antibody alone” value in test [4] is listed as −0.438 μg/mL. For the same molecule, in test [4] (with 50 nM ruxolitinib), the “Log IC50, Antibody + ruxolitinib” value is on record as −1.458 μg/mL. In test [5] (BaF3 cells carrying mutCALR, dose-dependent), the induction of apoptosis result is given as “selectively induced apoptosis”. Also, in test [5] (WT BaF3 cells), the cell cycle profiles result was “did not impact cell cycle profiles”.
